From publication PMC4336329 (PLoS ONE, 2015)
The whole screen tested about 310,000 compounds, of which about 2,200 (0.71%) showed an effect of 50% or more. Effects have a minus sign here. The list shows a part of the results. Where a SMILES comes first, the peptide text is derived from it. The star is where a group is joined. Boc = CC(C)(C)OC(=O)*

biological target: human ether-à-go-go-related gene (hERG) potassium channel (human, UniProt Q12809); assay: primary screen, population patch clamp on CHO cells stably expressing hERG
Sequence (Q12809 whole entry, looked up): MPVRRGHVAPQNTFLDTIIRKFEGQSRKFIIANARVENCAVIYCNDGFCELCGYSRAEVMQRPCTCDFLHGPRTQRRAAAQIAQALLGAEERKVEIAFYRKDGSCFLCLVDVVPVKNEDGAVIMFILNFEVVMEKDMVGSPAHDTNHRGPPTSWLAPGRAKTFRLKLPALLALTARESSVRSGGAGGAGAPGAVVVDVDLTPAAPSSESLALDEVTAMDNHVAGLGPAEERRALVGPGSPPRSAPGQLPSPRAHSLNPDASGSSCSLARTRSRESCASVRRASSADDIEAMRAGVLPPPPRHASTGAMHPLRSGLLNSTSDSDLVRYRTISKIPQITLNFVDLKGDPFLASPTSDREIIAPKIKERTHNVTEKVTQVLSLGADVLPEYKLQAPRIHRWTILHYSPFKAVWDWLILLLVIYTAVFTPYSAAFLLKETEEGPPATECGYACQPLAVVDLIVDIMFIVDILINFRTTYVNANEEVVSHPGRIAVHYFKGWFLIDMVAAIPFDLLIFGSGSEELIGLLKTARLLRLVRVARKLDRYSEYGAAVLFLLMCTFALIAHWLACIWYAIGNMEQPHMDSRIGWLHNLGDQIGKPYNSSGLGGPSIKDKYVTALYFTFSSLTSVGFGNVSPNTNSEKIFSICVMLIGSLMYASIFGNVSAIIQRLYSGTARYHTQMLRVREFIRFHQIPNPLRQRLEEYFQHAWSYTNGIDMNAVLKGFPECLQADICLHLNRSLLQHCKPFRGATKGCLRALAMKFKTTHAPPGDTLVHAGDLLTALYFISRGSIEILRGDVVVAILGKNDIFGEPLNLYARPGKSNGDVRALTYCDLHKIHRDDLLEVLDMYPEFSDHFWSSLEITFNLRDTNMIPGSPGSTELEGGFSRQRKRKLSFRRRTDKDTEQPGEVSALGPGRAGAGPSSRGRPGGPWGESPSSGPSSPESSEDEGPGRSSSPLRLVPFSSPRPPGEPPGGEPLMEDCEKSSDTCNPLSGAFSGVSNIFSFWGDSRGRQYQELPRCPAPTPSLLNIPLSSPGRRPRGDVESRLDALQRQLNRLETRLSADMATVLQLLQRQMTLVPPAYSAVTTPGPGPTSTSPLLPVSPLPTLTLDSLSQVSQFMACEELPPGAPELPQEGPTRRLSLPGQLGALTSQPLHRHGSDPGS

| Compound | hERG current change (%, negative = inhibition) at 1uM [%] |
| --- | --- |
| CC(C)C(=O)Nc1cccc(NC(=O)c2cccc([N+](=O)[O-])c2)c1 | -8.83 |
| COCCn1c(-c2cccc([N+](=O)[O-])c2)nc2c1c(=O)[nH]c(=O)n2Cc1ccccc1 | -42.9 |
| Cn1c(=O)c2c(nc(Cl)n2Cc2ccc(Cl)c(Cl)c2)n(C)c1=O | -4.81 |
| Cc1onc(-c2ccccc2)c1C(=O)NNC(=O)c1ccccc1Br | 10.5 |
| COCCNc1nc(C)cc(-c2cc(C(=O)Nc3ccccc3)on2)n1 | 0.262 |
| Cc1cc(-n2c(SCC(=O)NCCC3=CCCCC3)nc3n[nH]c(C)c3c2=N)ccc1Cl | 2.48 |
| O=C(Nc1cccc2c1C(=O)NC2=O)c1ccccc1[N+](=O)[O-] | 12.1 |
| CCOC(=O)C1C(=O)NCC1c1ccccc1 (centres unmarked) | 16.7 |
| Cc1nnc(SCC(=O)N2CCCCC2)n1CC1CCCO1 (centres unmarked) | 8.12 |
| CC(Oc1ccccc1)C(=O)Nc1nc(-c2ccncc2)cs1 (centres unmarked) | 16.9 |
| CCOC(=O)c1sc(Nc2nc3ccc(OC)cc3s2)cc1C | 5.47 |
| CC1C(=O)Nc2ccccc2N1C(=O)c1ccc(Cl)c(Cl)c1 (centres unmarked) | 11.1 |
| CCN(CC)c1ccc(C=Nc2ccccc2)c(O)c1 | 9.88 |
| COc1ccc(CCNC(=O)CCS(=O)(=O)c2ccc(C)cc2)cc1OC | -2.67 |
| O=C(CCc1nc(-c2ccccc2F)no1)NCCN1CCOCC1 | 10.4 |
| CCCCN(C(=O)Oc1ccccc1)C1CCS(=O)(=O)C1 (centres unmarked) | -5.02 |
| O=C(Nc1ccccc1Cl)c1cccs1 | 0.636 |
| CN(c1ccccc1)P(=O)(N(C)c1ccccc1)N(C)c1ccccc1 | 3.65 |
| O=C(Nc1ccc(F)cc1)c1ccccc1CC[N+](=O)[O-] | 6.42 |

| Compound | hERG current change (%, negative = inhibition) at 1uM [%] |
| --- | --- |
| COc1ccc2occ(NC(C)=O)c2c1 | 3.53 |
| Cn1c(=O)n(CC(=O)N2CCOCC2)c2ccccc21 | 2.5 |
| COc1cccc(/C=C(/C(=O)OCC(N)=O)c2ccccc2)c1 | 5.68 |
| CCOc1cc(/C=N\NC(=O)CC(=O)NCCc2ccccc2)ccc1O | 18.6 |
| CN(CC(=O)Nc1ccc(F)cc1)C(=O)CN1C(=O)c2ccccc2C1=O | 6.79 |
| Cc1ncc(CC(=O)n2cc(C(=O)c3cc(Cl)ccc3O)cn2)s1 | 7.17 |
| CN1CCN(C(=O)C2(NC(=O)Nc3cccc(F)c3)CCCCC2)CC1 | -0.779 |
| O=C(NCc1ccc(F)cc1)C1CCCN(C(=O)NCc2ccccc2)C1 (centres unmarked) | 5.04 |
| Cc1ccc(CNC(=O)Cn2ccc3cc(S(=O)(=O)N4CCCCCC4)ccc32)cc1 | 10.6 |
| COc1ccc(S(=O)(=O)NNC(=O)c2csc(-n3nc(C)cc3C(F)(F)F)n2)cc1 | 20.7 |
| COc1cccc(N2CCN(c3c(C#N)c(C(F)(F)F)nn3C)CC2)c1 | -0.992 |
| COc1cccc(/C=N/NC(=O)c2c(-c3ccccc3)noc2C)c1OC | 11.3 |
| Cc1ccc(SC(C)c2nc(-c3ccccc3)no2)cc1 (centres unmarked) | 7.67 |
| C/C(N)=C(/C#N)C(=O)CSc1nc2ccccc2c(=O)n1Cc1ccc(F)cc1 | -3.42 |
| C=CCn1c(SCC(C)=O)nc2scc(-c3ccc(C)o3)c2c1=O | 13.4 |
| O=C(Cn1cnc2sc(-c3ccccc3)cc2c1=O)NCc1ccco1 | 4.67 |
| CCN(CC)c1ccc(S(=O)(=O)Nc2cc(Cl)ccc2Cl)cc1NC(=S)NC(=O)C1CCCC1 | 13.5 |
| Cc1ccc(Nc2nnc(C)c3ccccc23)c(C)c1 | 9.48 |
| CCCOc1ccc2oc(=O)c3c(c2c1)CCCN3C(=O)CN1CCCC(C(=O)OCC)C1 (centres unmarked) | -17 |

| Compound | hERG current change (%, negative = inhibition) at 1uM [%] |
| --- | --- |
| CCOC(=O)N1CCN(C(=O)COc2ccc3c(c2)C(=O)CC2(CCN(C(C)=O)CC2)O3)CC1 | 4.93 |
| O=C(CN1CCN(S(=O)(=O)c2ccc(C(F)(F)F)cc2)CC1)N1CCNC1=O | 5.17 |
| Cn1ncc(Cl)c1C(=O)N1CCc2ccccc21 | -4.69 |
| CC(CCc1ccccc1)NC(=O)c1ccccc1 (centres unmarked) | 8.58 |
| CC(=O)Nc1c2c(nn1-c1ccc(C)cc1C)CS(=O)C2 (centres unmarked) | 13.3 |
| CCn1cc(S(=O)(=O)CC(=O)Nc2ccc3c(c2)OCO3)c2ccccc21 | 12.6 |
| O=C1c2ccccc2C(=O)N1CCSc1nncs1 | -5.9 |
| O=C(O)CCCN1C(=O)NC2NC(=O)NC21 (centres unmarked) | 10.2 |
| CCC(=O)N1CCc2cc(S(=O)(=O)N3CCN(c4cc(C)ccc4C)CC3)ccc21 | 16.2 |
| O=C(CCCC(=O)OCC(=O)NC1CCCC1)Nc1ccccn1 | 0.502 |
| COc1ccc([N+](=O)[O-])c(OC)c1C(=O)NC(=O)Nc1nc(C)nc(C)n1 | -0.625 |
| CCOC(=O)C(Cc1ccc(O)cc1)NC(=O)CNC(=O)C1CCCN1C(=O)OC(C)(C)C (stereo not drawn) (Boc-Pro-Gly-Tyr-OEt; configuration not given here) | 13.5 |
| Cc1ccc(NC(=O)CS(=O)CC(=O)NC2CCN(Cc3ccccc3)CC2)c(C)c1 (centres unmarked) | 6.57 |
| Cc1ccc(-n2c(SCC(=O)NCC3CCCO3)nc3c(c2=O)SCC3)cc1 (centres unmarked) | 2.53 |
| Cc1ccc(NCc2nnc(SCC(=O)Nc3ccccc3)n2CC2CCCO2)c(C)c1 (centres unmarked) | 10.6 |
| CCOCCCNC(=O)c1[nH]c(C)c(C(C)=O)c1C | 14.4 |
| C/C(=N\NC(=O)C(N)=O)c1ccc(NC(=O)c2cccs2)cc1 | 18.4 |
| C=CCSc1nc2sc3c(c2c(=O)[nH]1)CC(C)(CC)OC3 (centres unmarked) | 15.4 |
